Reference: article PMC5515408
The list shows a part of the results. At the low end of the ranking the order means little.

molecular target: MAX:MAX (p21) (UniProt P61244-2); test: protein-binding microarray (anti-MAX antibody); settings: PBM: 15 mM Tris-HCl pH 7.5, 100 mM KCl, 0.075% NP40, 7.5 mM beta-mercaptoethanol, 375 ng/ul BSA, 8 ng/ul poly(dA-dT):(dA-dT), 550 ng complex, 60 min, room …; high values mean tight binding; double strand, one strand shown; sequences stand for … in CCGGC…TTAATAGCTAAGATTACTATATCGACG

Row | Sequence | binding signal (log2 normalized fluorescence)
1 | TGGCACACGGTT | 1.59
2 | TGAACCGCGGTA | -0.184
3 | TGATGGTGCGTA | 0.65
4 | TGAAACAGAGTA | -0.664
5 | TTCTTTATCACG | 1.16
6 | TGAATACTCGTA | -0.922
7 | TGACCCTGTGTA | 0.4
8 | TGACGGAATGTA | -0.194
9 | TGAGGGCCAGTA | -0.677
10 | TCGGTCTTCCTC | -1.71
11 | TGAGGGCATGTA | 1.31
12 | TGAATTGTGGTA | 0.192
13 | TGAACATACGTA | 0.737
14 | GCACACGTGGTA | 3.29
15 | TGACACGACGTA | 0.957
16 | TGAGTAATGGTA | -0.395
17 | TATCACGTGGGA | 3.05
18 | TGAGGCCGTGTA | -0.276
19 | TGAACTCCTGTA | 0.0348
20 | TGATTCCTGGTA | -0.681
21 | TGATTTTAAGTA | -0.913
22 | TGAAGAGTTGTA | -0.595
23 | TGAGGGCCCGTA | -0.285

Row | Sequence | binding signal (log2 normalized fluorescence)
24 | TGGGTCGTGGTA | 0.33
25 | TGACTTGTGGTA | 0.859
26 | TGAGCAATAGTA | -0.757
27 | TGATTGCTCGTA | -0.459
28 | TGAAAACGAGTA | 0.337
29 | TGAGAGCTGGTA | -0.855
30 | TGACCAACAGTA | -0.301
31 | TGAGCCCTTGTA | -1.09
32 | TGAAGCGATGTA | -0.278
33 | TGAGCGAGAGTA | -0.652
34 | TGAGACGGGGTA | -0.19
35 | TGAGGGTGGGTA | 0.835
36 | TGATCGAATGTA | -0.592
37 | CGACACGTGTTA | 3.4
38 | TGATTTTTTGTA | -1.53
39 | TGAGCGTAGGTA | -0.692
40 | TGAGTCCTGGTA | -1.17
41 | TGACGCTCCGTA | -0.517
42 | TGGCACCTGGTT | 1.82
43 | TGACAAACTGTA | -0.246
44 | GCGCACGTGGTA | 3.39
45 | TGAGAGTCTGTA | -1.05
46 | TGAAAAATTGTA | -1.16

Row | Sequence | binding signal (log2 normalized fluorescence)
47 | TGACCCATTGTA | -0.0278
48 | TGACGTCTTGTA | -0.677
49 | TGACAGTAGGTA | -0.344
50 | TGACTAGAAGTA | -0.842
51 | TGAGCTTATGTA | -0.493
52 | TGACCGAGTGTA | -0.0504
53 | TGATATTTCGTA | -1.21
54 | TGAGGTACGGTA | -0.258
55 | TGAAGGTCTGTA | -0.627
56 | AGCTGGATACTC | 1.39
57 | TTACACGTGGTT | 3.22
58 | TGACGCGTTGTA | 1.2
59 | TGATGCCAAGTA | -0.383
60 | TGATACGTAGTA | -0.967
61 | TGAAAGTGAGTA | -0.479
62 | TGAATTATAGTA | -1.12
63 | TGATTGGAGGTA | -0.542
64 | TGATTCTTGGTA | -1.32
65 | TGAGTCAACGTA | -0.775
66 | TGATAATGTGTA | 0.335
67 | TGAGGACTCGTA | -0.745
68 | TGATGCACGGTA | 0.928
69 | TGACACGTGGAC | 3.07

Row | Sequence | binding signal (log2 normalized fluorescence)
70 | TGATGCGAGGTA | 0.34
71 | TGACGGGTTGTA | -0.204
72 | TGACTATACGTA | -0.402
73 | TGACACCTGGGA | 1.79
74 | TGCCACCTGGTA | 2.96
75 | GGACACGCGGTA | 3.26
76 | TGATAGGCGGTA | -0.657
77 | TGACCAGCAGTA | 0.131
78 | TGACGCTTAGTA | -0.599
79 | TGATGAGACGTA | -0.441
80 | TGACACTCGGTA | 0.352
81 | TGAACTCCAGTA | -0.79
82 | TGAGGTAGAGTA | -0.816
83 | TGAGCTGGCGTA | -0.687
84 | TGACAATACGTA | -0.1
85 | TGACGATGAGTA | -0.407
86 | TGAAACGTGGGA | 2.73
87 | TGAATACACGTA | 0.221
88 | TGATAGCTCGTA | -1.12
89 | TGATCGGATGTA | -0.344
90 | TGAGTTTTGGTA | -1.18
91 | TGACTTGACGTA | -0.392
92 | TGAAAACTAGTA | -0.875

Row | Sequence | binding signal (log2 normalized fluorescence)
93 | TGAGCGCTCGTA | -0.608
94 | TGATTCATTGTA | -0.754
95 | TGAGCACGTGTA | 3.28
96 | TGATCGGAAGTA | -0.874
97 | TGAGTGATGGTA | -0.0812
98 | TGATGTTATGTA | -0.0821
99 | TGACAAGGCGTA | -0.259
100 | TGAACACGCGTA | 2.86
101 | TGATCCATTGTA | -0.567
102 | TGATCTCAAGTA | -0.88
103 | TGAGGCATAGTA | -0.791
104 | AAATACGTGGTA | 1.85
105 | TGAGTGTCCGTA | 0.0672
106 | TGATAGCAAGTA | -0.425
107 | TGAGCGCTTGTA | -0.403
108 | TGAACTAATGTA | -0.668
109 | TGAGGAGTCGTA | -0.861
110 | TGATTGCTAGTA | -0.863
111 | TGATACAGTGTA | -0.422
112 | TGACGTCGGGTA | -0.452
113 | TGAGCAGGAGTA | -0.201
114 | TGAACAGGAGTA | 0.124
115 | TGAAAGTCCGTA | -1.11

Row | Sequence | binding signal (log2 normalized fluorescence)
116 | TGAAATGCCGTA | 0.0999
117 | AGACACGTGGTA | 3.08
118 | TGAGTCAAAGTA | -0.894
119 | TGACGATGTGTA | 0.182
120 | TGACACGCCATA | 2.41
121 | TGATTGATCGTA | -0.808
122 | TGACATGTGGCC | 2.99
123 | TGAAAGACGGTA | -0.709
124 | TGACACGCAGTA | 1.7
125 | TGAAGGCAAGTA | -0.39
126 | TGATTTCGGGTA | -1.08
127 | TGAAAGGATGTA | -0.0682
128 | CATGCCCGAAAC | 2.98
129 | TGATATGCGGTA | -0.293
130 | TGAATGGTCGTA | 0.589
131 | TGAGTTCCTGTA | -0.86
132 | TAGCAGCCATGG | 0.195
133 | TGACACCCTGTA | 0.532
134 | TGATCAACGGTA | -0.193
135 | TGACGTAACGTA | -0.528
136 | TGAGGTCACGTA | 0.139
137 | TGAAAGCGCGTA | 0.0231
